In paper PMC4336329 (PLoS ONE, 2015):
Screen size: about 310,000 compounds; about 2,200 (0.71%) showed an effect of 50% or more. The effect is printed as a negative number. Some of the results follow.

target: human ether-à-go-go-related gene (hERG) potassium channel (human, UniProt Q12809); assay: primary screen, population patch clamp on CHO cells stably expressing hERG
Sequence (Q12809 whole entry, looked up): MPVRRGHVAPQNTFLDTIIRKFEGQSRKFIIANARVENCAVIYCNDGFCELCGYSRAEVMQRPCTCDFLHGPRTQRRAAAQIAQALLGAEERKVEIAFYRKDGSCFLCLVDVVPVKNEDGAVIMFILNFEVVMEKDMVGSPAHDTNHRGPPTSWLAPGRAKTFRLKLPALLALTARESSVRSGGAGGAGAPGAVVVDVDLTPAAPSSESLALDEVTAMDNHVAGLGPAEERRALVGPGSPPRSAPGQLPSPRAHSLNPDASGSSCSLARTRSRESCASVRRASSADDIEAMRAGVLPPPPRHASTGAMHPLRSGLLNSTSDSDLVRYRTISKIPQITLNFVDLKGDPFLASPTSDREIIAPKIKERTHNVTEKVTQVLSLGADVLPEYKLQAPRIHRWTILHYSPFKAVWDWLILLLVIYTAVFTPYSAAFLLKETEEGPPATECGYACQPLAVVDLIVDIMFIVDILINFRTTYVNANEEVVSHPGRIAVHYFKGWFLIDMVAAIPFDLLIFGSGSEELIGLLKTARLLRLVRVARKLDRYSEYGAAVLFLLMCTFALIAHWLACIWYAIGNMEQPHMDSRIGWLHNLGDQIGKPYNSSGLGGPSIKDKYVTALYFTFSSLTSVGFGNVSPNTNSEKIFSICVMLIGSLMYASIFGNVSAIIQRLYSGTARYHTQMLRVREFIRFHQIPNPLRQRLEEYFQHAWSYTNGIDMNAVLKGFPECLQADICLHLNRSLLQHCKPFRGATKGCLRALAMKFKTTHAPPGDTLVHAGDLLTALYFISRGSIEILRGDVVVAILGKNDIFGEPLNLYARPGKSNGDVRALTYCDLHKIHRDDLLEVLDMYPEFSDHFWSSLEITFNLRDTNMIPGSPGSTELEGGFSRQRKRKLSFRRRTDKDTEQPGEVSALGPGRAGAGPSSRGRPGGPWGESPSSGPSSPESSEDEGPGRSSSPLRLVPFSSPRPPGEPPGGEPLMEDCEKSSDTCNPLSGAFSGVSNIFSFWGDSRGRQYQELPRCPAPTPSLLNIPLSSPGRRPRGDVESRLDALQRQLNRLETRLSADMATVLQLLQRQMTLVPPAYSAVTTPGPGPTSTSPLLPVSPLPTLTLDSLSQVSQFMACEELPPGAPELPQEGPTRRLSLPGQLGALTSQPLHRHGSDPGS

Row | Compound | hERG current change (%, negative = inhibition) at 1uM [%]
1 | O=C(Nc1ccc2c(c1)C(=O)OC2)c1ccc(Cl)cc1 | 15.4
2 | Cc1ccccc1C1CCCN(Cc2nc(CC3CC3)no2)C1 (centres unmarked) | 6.51
3 | COC(=O)c1ccc(NS(=O)(=O)c2ccc(-c3cc(C)no3)s2)cc1 | 9.22
4 | Cc1cccc(OCC(=O)N(Cc2ccco2)C2CCS(=O)(=O)C2)c1C (centres unmarked) | -5.31
5 | Cc1ccccc1OC(C)C(=O)Nc1cccnc1 (centres unmarked) | 17.1
6 | Cc1ccc(CNC(=O)CNS(=O)(=O)c2ccc(Br)s2)cc1 | 6.27
7 | CN(CCc1ccccn1)C(=S)Nc1ccc(Cl)cc1Cl | -4.04
8 | Cc1cccc(NC(=O)CSc2nc3c([nH]c4ccccc43)c(=O)n2C)c1 | 14.3
9 | O=C1NC(=O)C(c2ccc(Cl)cc2)N1 (centres unmarked) | 8.62
10 | COc1ccc(-c2nnc3n2N=C(C)CS3)cc1OC | 7.9
11 | Cc1nc(SCC(=O)Nc2cccc(C(=O)O)c2)n[nH]1 | 16.2
12 | CCOc1nc2cnccc2n(CC(=O)Nc2ccccc2C(=O)OC)c1=O | 1.57
13 | COc1ccc(-n2nc(C(=O)NCC(=O)N3CCN(c4ccccc4OC)CC3)c3ccccc3c2=O)cc1OC | -0.135
14 | Cc1nn(CCc2n[nH]c(=S)n2-c2ccc(F)c(Cl)c2)c(C)c1[N+](=O)[O-] | 14.9
15 | COc1ccc(NC(=O)c2noc3c2CCC3)cc1 | 0.883
16 | CC(C)(C)NC(=S)N1CCn2cccc2C1c1cccnc1 (centres unmarked) | 3.72
17 | CCNC(=O)CC1C(=O)N(c2ccc(F)cc2)C(=O)N1Cc1cccs1 (centres unmarked) | -0.659
18 | CCOc1ccccc1CNS(=O)(=O)c1ccc2[nH]c(=O)sc2c1 | 3.85
19 | O=C(Nc1ccc(NC(=O)c2ccco2)cc1)c1cnccn1 | 19.8
20 | Cc1c(C)c2cc(Cl)c(OC(C)C(=O)NCCN3CCOCC3)cc2oc1=O (centres unmarked) | 9.8
21 | CN(CC(=O)OCC(=O)c1c(N)n(C)c(=O)n(C)c1=O)S(=O)(=O)c1ccc(Cl)cc1 | -22.2
22 | CCCCCc1nc2c(C#N)c(-c3ccc(Cl)cc3)ccn2n1 | 11.3
23 | O=C(CC(Cc1ccccc1)c1ccco1)NC1CCCCC1 (centres unmarked) | 15

Row | Compound | hERG current change (%, negative = inhibition) at 1uM [%]
24 | O=C(Cn1[nH]c(=O)c2ccccc2c1=O)Nc1cccc(S(=O)(=O)N2CCCCCC2)c1 | 2.17
25 | C/C(=N\NC(=O)c1ccc(N(C)C)cc1)c1cccnc1 | 1.57
26 | O=C(CN1CCCCC1)N=Nc1c(O)[nH]c2ccccc12 | 8.41
27 | Cc1noc(C)c1COC(=O)c1ccc(S(=O)(=O)N2CCCCC2)cc1 | 12.8
28 | Oc1ccc(Cl)cc1-c1cc(-c2ccccc2)n[nH]1 | 15.4
29 | CCN(CC)c1ccc2c(-c3ccc(S(=O)(=O)[O-])cc3S(=O)(=O)[O-])c3ccc(=[N+](CC)CC)cc-3oc2c1.[Na+] | 13
30 | COC(=O)C(NC(=O)c1c(C)nn(C)c1Cl)c1ccccc1 (centres unmarked) | 14.2
31 | O=C(Nc1cccc(-c2ccc(F)cc2)c1)C1CCCN(C(=O)c2cscn2)C1 (centres unmarked) | 14
32 | Cc1ccc(N)c([N+](=O)[O-])c1 | 12.3
33 | CNC(=O)c1c(NC(=O)c2ccco2)sc2c1CCC2 | 13
34 | CCCCc1nnc(SCC(=O)NC2CCCCC2)n1C | 10.4
35 | COCC(=O)Nc1ccc(Nc2ccccc2)cc1 | -3.39
36 | Clc1ccc(C2=NOC(c3nnc(-c4ccccc4)o3)C2)cc1 (centres unmarked) | 8.18
37 | O=C(O)CCN1C(=O)c2ccc(NC(=O)c3ccco3)cc2C1=O | 4.1
38 | O=C(O)c1nn(Cc2ccc(Cl)cc2Cl)c2ccccc12 | 13.3
39 | COc1ccc(CCNC(=O)Nc2cccc([N+](=O)[O-])c2)cc1 | 13.3
40 | CCCCC(=O)NC1(C(F)(F)F)C(=O)N(Cc2ccco2)C(C)=C1C(=O)OC (centres unmarked) | 10.4
41 | O=C1C2CC=CCC2C(=O)N1n1cnnc1 (centres unmarked) | 12.3
42 | COc1cc2cc(CCCOC(=O)CCC(=O)O)oc(=O)c2cc1OC | 13.3
43 | CC1=CCC2C(=O)N(c3ccc(OC(=O)c4ccco4)cc3)C(=O)C2C1 (centres unmarked) | 12.7
44 | O=C(Nc1ccccn1)c1ccc2c(c1)S(=O)(=O)c1ccccc1C2=O | 4.95
45 | Cc1ccc(/C=C2\S/C(=N/S(=O)(=O)c3cccs3)NC2=O)cc1 | 13
46 | Cc1ccc(S(=O)(=O)Nc2ccc(N3CCOCC3)cc2)cc1[N+](=O)[O-] | 1.09

Row | Compound | hERG current change (%, negative = inhibition) at 1uM [%]
47 | CCN(CC)S(=O)(=O)c1ccc(N2CCOCC2)c(NC(=O)COc2ccccc2)c1 | -1.21
48 | C[C@H](Nc1ncnc2sc3c(c12)CCC3)C(=O)O | 15.5
49 | S=c1[nH]c2cc3c(cc2[nH]1)OCCO3 | 12.4
50 | COc1ccc(CCNC(=O)CSc2nc(N)cc(=O)[nH]2)cc1OC | 24.9
51 | COCCc1ncc(CN2CCCCC2C(=O)Nc2ccc(Oc3ccccc3)nc2)cn1 (centres unmarked) | 3.33
52 | CC(NC(=O)C(=O)NCC1CCCO1)c1ccccc1 (centres unmarked) | 14.7
53 | C#CCNC(=O)C1=C[C@H](c2ccc3c(c2)OCO3)C[C@H](OCCCCO)O1 | 15
54 | CCN(CC)C(=O)n1c(Cc2ccccc2)nc2ccccc21 | 2.89
55 | COC(=O)C1=C(C)NC(=O)/C1=C\c1cc(C)n(-c2c(C)cccc2C)c1C | -0.839
56 | O=c1c2ccccc2nc(CNCc2ccco2)n1-c1ccc(F)cc1 | 8.43
57 | COc1ccc(OC)c(-n2nnnc2SCC(=O)Nc2ccccc2OC)c1 | 11.7
58 | COC(=O)C(CC(C)C)NC(=O)/C=C/c1ccc(Cl)cc1 (centres unmarked) | 3.59
59 | COc1ccc(CN2CCCC(C(=O)c3ccc4c(c3)OCO4)C2)c(F)c1 (centres unmarked) | -8.02
60 | CN1CCN(c2ccc(Cl)cc2N)CC1 | 6.48
61 | N=c1c(C(=O)NC2CCCCC2)cc2c(=O)n3ccccc3nc2n1CC1CCCO1 (centres unmarked) | -79.2
62 | CCOc1ccc(NC(=O)CN(C)C(=O)c2ccc(C3SCCS3)cc2)cc1OCC | 8.38
63 | CCOC(=O)Cc1csc(NC(=O)CSc2nnc3ccccn23)n1 | 12.2
64 | O=C(NCCN1CCNC1=O)C1CCC(=O)N(Cc2cccc(C(F)(F)F)c2)C1 (centres unmarked) | 9.07
65 | CCN(CC)C(=O)CSc1nc2nc(C)cc(C)c2c(=O)[nH]1 | 12.4
66 | CCCN1C2=C(C(=O)CCC2)C(c2ccc(O)c(Br)c2)C2=C1CCCC2=O | 4.46
67 | COc1ccc(CNC(=O)CSc2nnc3c(n2)[nH]c2ccc(F)cc23)cc1 | 11.8
68 | CCOc1ccc(-n2nnnc2SCC(=O)Nc2ccc(NC(C)=O)cc2)cc1 | 19.3
69 | COc1ccc(OC)c(CCNC(=O)CCc2nnc3ccc(N4CCOCC4)nn23)c1 | 13.4

Row | Compound | hERG current change (%, negative = inhibition) at 1uM [%]
70 | CCn1c(CC(=O)Nc2ccccc2)nnc1SCC(=O)NC1=NCCS1 | 8.66
71 | O=C(CC(c1ccccc1)c1cc(Cl)ccc1O)N1CCOCC1 (centres unmarked) | 1.93
72 | CC(C)(C)c1nn(-c2ccccc2)c2[nH]c(=O)c(C=O)cc12 | 9.55
73 | Cc1ccc(N(CN2CCCC2=O)C(=O)c2ccccc2)cc1 | 16.2
74 | Cc1ccccc1N1CC(C(=O)Nc2ccc(S(=O)(=O)NCC3CCCO3)cc2)CC1=O (centres unmarked) | 13.4
75 | O=C(c1ccc(-c2ccc([N+](=O)[O-])cc2Cl)o1)N1CCOCC1 | 1.35
76 | S=c1[nH]nc(C2CCCCC2)n1/N=C/c1ccccc1 | 16.8
77 | CN(C)S(=O)(=O)c1cccc(NC(=O)COC(=O)c2c[nH]c(=O)[nH]c2=O)c1 | 27
78 | OC(CNCc1ccc(F)cc1)(c1ccccc1)c1ccc(F)cc1 (centres unmarked) | 6.27
79 | COc1cc(OC)c(C2N(C)c3ccccc3N2C)cc1OC | 12.7
80 | CN(CC(=O)N1CCCCC1)S(=O)(=O)c1ccc(Cl)cc1 | 11.4
81 | COc1cc(-c2nnc(SCc3cc(=O)oc4cc(O)c(O)cc34)o2)cc(OC)c1OC | 9.43
82 | COc1cccc(/C=C2\Oc3cc(OCC(=O)N4CCCC4)ccc3C2=O)c1OC | 14.3
83 | NC(=O)CC(NC(=O)c1cccc(Br)c1)c1ccc(N2CCC(N3CCCCC3)CC2)c([N+](=O)[O-])c1 (centres unmarked) | 9.51
84 | COc1cccc(Cn2cccc(NC(=O)Nc3ccccc3C)c2=O)c1 | 12.9
85 | O=[N+]([O-])c1cccc(S(=O)(=O)NCCc2cn3ccccc3n2)c1 | -3.32
86 | CCOc1cc(-c2cc(-c3ccccc3)nc(N)c2C#N)ccc1O | 16.6
87 | COc1ccc(C2N=C(c3ccccc3)NC(c3ccccc3)=N2)cc1 | 2.9
88 | Cc1cccc(-n2c(CNC(=O)COc3ccccc3)nnc2SCC(=O)Nc2nccs2)c1 | 5.1
89 | CCOC(=O)c1sc(NC(=O)CSc2nnc(C(C)C)n2C)nc1C | 13.5
